PMC9911399, “Two distinct binding modes provide the RNA-binding protein RbFox with extraordinary sequence specificity”
Positions count from the first letter of the chain named. The list shows a part of the results.

T1: RBFOX1 RRM (Homo sapiens, UniProt Q9NWB1 109-208)
T1 sequence: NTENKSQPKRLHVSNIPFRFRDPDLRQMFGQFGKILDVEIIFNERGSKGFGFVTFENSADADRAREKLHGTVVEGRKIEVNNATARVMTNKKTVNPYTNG

B1: GACAUCG (DNA:RNA)
RNA: GGGAGACCGGAAUUCAGAUUGUCCGACAUCGUUAAAUCCCGUCGUAGCCACCA
DNA 1: CAATCTGAATTCCGGTCTCCC
DNA 2: TGGTGGCTACGACGGGATT
B2: AGUUACU (DNA:RNA)
RNA: B1 RNA with G25A, A26G, C27U, A28U, U29A, G31U
DNA 1: CAATCTGAATTCCGGTCTCCC
DNA 2: TGGTGGCTACGACGGGATT
B3: GGAUAAC (DNA:RNA)
RNA: B1 RNA with A26G, C27A, A28U, U29A, C30A, G31C
DNA 1: CAATCTGAATTCCGGTCTCCC
DNA 2: TGGTGGCTACGACGGGATT
B4: CAUAACU (DNA:RNA)
RNA: B1 RNA with G25C, C27U, U29A, G31U
DNA 1: CAATCTGAATTCCGGTCTCCC
DNA 2: TGGTGGCTACGACGGGATT
B5: GAAGCUC (DNA:RNA)
RNA: B1 RNA with C27A, A28G, U29C, C30U, G31C
DNA 1: CAATCTGAATTCCGGTCTCCC
DNA 2: TGGTGGCTACGACGGGATT
B6: GACAAAA (DNA:RNA)
RNA: B1 RNA with U29A, C30A, G31A
DNA 1: CAATCTGAATTCCGGTCTCCC
DNA 2: TGGTGGCTACGACGGGATT
B7: GCAACGC (DNA:RNA)
RNA: B1 RNA with A26C, C27A, U29C, C30G, G31C
DNA 1: CAATCTGAATTCCGGTCTCCC
DNA 2: TGGTGGCTACGACGGGATT
B8: CGGCUUU (DNA:RNA)
RNA: B1 RNA with G25C, A26G, C27G, A28C, C30U, G31U
DNA 1: CAATCTGAATTCCGGTCTCCC
DNA 2: TGGTGGCTACGACGGGATT
B9: CAUUGAU (DNA:RNA)
RNA: B1 RNA with G25C, C27U, A28U, U29G, C30A, G31U
DNA 1: CAATCTGAATTCCGGTCTCCC
DNA 2: TGGTGGCTACGACGGGATT
B10: CCAAUGG (DNA:RNA)
RNA: B1 RNA with G25C, A26C, C27A, C30G
DNA 1: CAATCTGAATTCCGGTCTCCC
DNA 2: TGGTGGCTACGACGGGATT
B11: CACGCCC (DNA:RNA)
RNA: B1 RNA with G25C, A28G, U29C, G31C
DNA 1: CAATCTGAATTCCGGTCTCCC
DNA 2: TGGTGGCTACGACGGGATT
B12: AGGCGAA (DNA:RNA)
RNA: GGGAGACCGGAAUUCAGAUUGUCCAGGCGAAUUAAAUCCCGUCGUAGCCACCA
DNA 1: CAATCTGAATTCCGGTCTCCC
DNA 2: TGGTGGCTACGACGGGATT
B13: UACCUUA (DNA:RNA)
RNA: B1 RNA with G25U, A28C, C30U, G31A
DNA 1: CAATCTGAATTCCGGTCTCCC
DNA 2: TGGTGGCTACGACGGGATT
B14: CCCGGGA (DNA:RNA)
RNA: B12 RNA with A25C, G26C, G27C, C28G, A30G
DNA 1: CAATCTGAATTCCGGTCTCCC
DNA 2: TGGTGGCTACGACGGGATT
B15: AAAGGUU (DNA:RNA)
RNA: B12 RNA with G26A, G27A, C28G, A30U, A31U
DNA 1: CAATCTGAATTCCGGTCTCCC
DNA 2: TGGTGGCTACGACGGGATT
B16: UACCGCG (DNA:RNA)
RNA: B1 RNA with G25U, A28C, U29G
DNA 1: CAATCTGAATTCCGGTCTCCC
DNA 2: TGGTGGCTACGACGGGATT
B17: CGAACAC (DNA:RNA)
RNA: B12 RNA with A25C, G27A, C28A, G29C, A31C
DNA 1: CAATCTGAATTCCGGTCTCCC
DNA 2: TGGTGGCTACGACGGGATT
B18: CGAGUCU (DNA:RNA)
RNA: B1 RNA with G25C, A26G, C27A, A28G, G31U
DNA 1: CAATCTGAATTCCGGTCTCCC
DNA 2: TGGTGGCTACGACGGGATT
B19: UCCAGCC (DNA:RNA)
RNA: B1 RNA with G25U, A26C, U29G, G31C
DNA 1: CAATCTGAATTCCGGTCTCCC
DNA 2: TGGTGGCTACGACGGGATT
B20: GGGUGAA (DNA:RNA)
RNA: B12 RNA with A25G, C28U
DNA 1: CAATCTGAATTCCGGTCTCCC
DNA 2: TGGTGGCTACGACGGGATT

Molecular target: T1, RBFOX1 RRM
Test: EMSA; HiTS-Eq, 1 nM pool, 10 min; buffer printed only for the single-RNA assays: 10 mM Tris pH 7.5, 150 mM NaCl, 3.4 mM EDTA, 0.001% NP-40, 30 C
Details: tags: His6 N-terminal (pET28a); label: 5' 32P
Procedure, shortened: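 These values rest on relative association constants, computed from read-count changes of each RNA species versus the control reaction and normalised to the cognate motif. Reads came from free RNA recovered by 8% native PAGE after purified RbFox RRM (wild type or mutant) at increasing concentrations was equilibrated for 10 min in 50 µL with 1 nM of a 5′-radiolabelled pool with 7 randomized nucleotides and DNA-annealed flanks.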

Point of comparison: B1, binding signal 0.00949 KA relative to UGCAUGU. Against it:
- B2 — lower, 0.00822 KA relative to UGCAUGU
- B3 — higher, 0.0108 KA relative to UGCAUGU
- B4 — lower, 0.00164 KA relative to UGCAUGU
- B5 — higher, 0.0103 KA relative to UGCAUGU
- B6 — lower, 0.0028 KA relative to UGCAUGU
- B7 — lower, 0.00878 KA relative to UGCAUGU
- B8 — higher, 0.0187 KA relative to UGCAUGU
- B9 — higher, 0.011 KA relative to UGCAUGU
- B10 — higher, 0.00975 KA relative to UGCAUGU
- B11 — lower, 0.00179 KA relative to UGCAUGU
- B12 — lower, 0.00756 KA relative to UGCAUGU
- B13 — lower, 0.00279 KA relative to UGCAUGU
- B14 — higher, 0.0106 KA relative to UGCAUGU
- B15 — lower, 0.00684 KA relative to UGCAUGU
- B16 — lower, 0.00774 KA relative to UGCAUGU
- B17 — lower, 0.00254 KA relative to UGCAUGU
- B18 — higher, 0.0134 KA relative to UGCAUGU
- B19 — lower, 0.0092 KA relative to UGCAUGU
- B20 — higher, 0.0139 KA relative to UGCAUGU
